The RNAGym collection of RNA variant scans (doi:10.7554/elife.90254)
Read counts are not given, so values of variants with three or more changes are uncertain.

B1: LINE1-full (parent)
chain: UACGUAGGUGGUUUUCCCCUGAUAGUGCUAAGGGGGCCUGGAAGUUUGGACUGGGCAGAGCUCAACACAGCGUGGCAAAGUGGCUGUGGCUAGACUGCCUCUCUGGAUUCCUCGUCACUCAGCAGGGCAUCUCUGAGAGAAAUGCC

Variants of: B1
Experiment: self-cleavage, relative activity (ratio to wild type); higher = more cleavage; in vitro, sequencing; the parent is a self-cleaving ribozyme
UACGUGGGUGGUCUUCCCCUGAUAGUGCUAAGGGGGCCUGGAAGUUUGGACUGGGCAGAGCUCAACACAGCGUGGCAAAGUGGCUGUGGCUAGACUGCCUCUCUGGAUUCCCCGUCACUCAGCAGGGCAUCUCUGAGCGAAAUGCC [A6G U13C U112C A138C] showed a self-cleavage of 1.71.
Work on UACGUGGGUGGUUUCCCCCUGAUAGUGCUAAGGGGGCCUGGAAGUUAGGACUGGGCAGAGCUCAACACGGCGUGGCAAAGUGGCUGUGGCUAGACUGCCUCUCUGGAUUCCUCGUCACUCAGCAGGGCAUCUCUGAGAGAAAUGCC [A6G U15C U47A A69G] yielded a self-cleavage of 0.
Work on UACGUGGGUGGUUCUCCCCUGAUAGUGCUAAGGGGGCCUGGAAGUUUGGACUGGGCAGAGCUCAACACAGCGUGGCAGAGUGGCUGUGGCUAGACUGCCUCUCUGGAUUCCUCGUCACUCCGCAGGGCAACUCUGAGAGAAAUGCC [A6G U14C A78G A121C U130A] yielded a self-cleavage of 0.59.
With UACGUGGGUGGUUUCCCCCUGAUAGUGCUAAGGGGGCCUGGAAGUUUGGACUGGGCAGAGCUCAACACAGCGUGGCAGAGUGGCUGUGGCUAGACUGCCUCUCUGGAUACCUCGUCACUCAGCAGGGCAUCUCUGAGAGAGAUGCC [A6G U15C A78G U109A A141G] the self-cleavage was 1.46.
UACGUGGGUGGUUUCCCCCUGAUAGUGCUAAGGGGGCCUGGAAGUCUGGACUGGGCAGAGCUCAACACAGCGUGGCAAAGUGGCUGUGGCUAGACUGCCCCUCUGGAUUCCUCGUCACUCAGCAGGGCAUCUCUGAGAGAAAUGCC [A6G U15C U46C U100C] gave a self-cleavage of 0.
Variant UACGUGGGUGGUUUACCCCUGAUAGUGCUAAGGGGGCCUGGAAGUUUGGACUGGGCAGAGCUCAACACAGCGUGGCAAAGUGGCUGUGGCUAUACUGCCUCUCUGGAUUCCCCGUCACUCAGCAGGGCAUCUCUGAGAGAAAUGCC [A6G U15A G93U U112C] has a self-cleavage of 0.08.
UACGUGGGUGGUUCUCCCCUGAUAGUGCUAAGGGGGCCUGGAAGUUUGGACUGGGCAGAGCUCAACACAGCGUGGCAAAGUGGCUGUGGCUAGACUGCCUCUCUGGAUUCCUCGUCACUCAGCAGGGCAUCUCUGAGAGAGAUGCC [A6G U14C A141G] gave a self-cleavage of 1.12.
In the case of UACGUGGGUGGUUUUCCCCUGAUAGAGCUAAGGGGGCCUGGAAGUUUGGACUGGGCAGAGCUCAACACAGCGUGGCAAAGCGGCUGUGGCUAGACUGCCCCUCUGGAUUCCUCGUCACUCAGCAGGGCAUCUCUGAGAGAAAUGCC [A6G U26A U81C U100C], the self-cleavage is reported as 1.77.
UACGUGGGUGGUUUUCCCCCGGUAGUGCUAAGGGGGCCUGGAAGUUUGGACUGGGCAGAGCUCAACACAGCGUGGCAAAGUGGCUGUGGCUAGACUGCCUCUCUGGAUUCCUCGUCACUCAGCAGGGCAUCUCUGAGGGAAAUGCC [A6G U20C A22G A138G] gave a self-cleavage of 0.
For UACGUGGGUGGUUCUACCCUGAUAGUGCUAAGGGGGCCUGGAAGUUUGGACUGGGCAGAGCUCAACACAGCGUGGCAAAGUGGCUGUGGCUAGACUGCCUCUCUGGAUUCCUCGUCACUCAGCAGGGCAUCUCUGAGAGAAAUGCC [A6G U14C C16A], the self-cleavage was 0.66.
For UACGUGGGUGGUUUUCCCCUGAUAGCGCUAAGGGGGCCUGGAAGUUUGGACUGGGCAGAGCUCAACACAGCGUGGCAAAGUGGCUGUGGCUAGACUGCCUCUUUGGAUUCCUCGUCUCUCAGCAGGGCAUCUCUGAGAGAAAUGCC [A6G U26C C103U A117U], the self-cleavage was 0.84.
UACGUGGGUGGUUUCCCCCUGAUAGUGCUAAGGGGGCCUGGAAGUUUGGACUGGGCAGAGCUCAACACAGCGUGGCAAAGUGGCUGUGGCUAGACUGCCUCUCUGGAUUCCUCGCCACUCAGCAGGGCAUCUCUGAGAGAAAUGCC [A6G U15C U115C] gave a self-cleavage of 1.67.
UACGUGGGUGGUUUUCCCCUGAUAGCGCUAAGGGGGCCUGGAAGUUUGGACUGGGCAGAGCUCAACACAGCGUGGCAAAGUGGCUGCGGCUAGACUGCCUCUCUGGAUUCCUCGUCACUCAGCAGGGCAUCUCUGGGAGAAAUGCC [A6G U26C U87C A136G] showed a self-cleavage of 1.31.
Variant UACGUGGGUGGUUUUCCCCUGACAGUGCUAAGGGGGCCUGGAAGUUUGGACUGGGCAGAGCUCAACACAGCGUGGCAAAGUGGCUGUGGCUAGACUGCCUCUCUGGAUCCCUCGUCACUCAGCAGGGCAUCUCUGAGAGAAAUGCC [A6G U23C U109C] has a self-cleavage of 1.15.
Work on UACGUGGGUGGUUUCCCCCUGAUAGUGCUAAGGGGGCCUGGAAGUUUGGACUGGGCAGAGCUCAACACAGCGUGGCAAAGUGGCUGUGGCUAGACUGCCUCUCAGGAUUCCUCGUCACUCAGCAGGGCAUCUCUGAGAGAAAUGCC [A6G U15C U104A] yielded a self-cleavage of 0.75.
Work on UACGUGGGUGGUUUUCCCCCGAUAGUGCUAAGGGGGCCUGGCAGUUUGGGCUGGGCAGAGCUCAACACAGCGUGGCGAAGUGGCUGUAGCUAGACUGCCUCUCUGGAUUCCUCGUCACUCAGCAGGGCAUCUCUGAGAGAAAUGCC [A6G U20C A42C A50G A77G G88A] yielded a self-cleavage of 0.
Variant UACGUGGGUGGUUGUCCCCUGAUAGUGCUAAGGGGGCCUGGAAGUUUGGACUGGGCACAGCUCAACACAGCGUGGCAAAGUGGCUGUGGCUAGACUGCCUCUCUGGAUUCCUCGUCACUCAGCAGGGCAUCUCUGAGAGAAAUGCC [A6G U14G G58C] has a self-cleavage of 0.17.
In the case of UACGUGGGUGGUUCUCCCCUGAUAGUGCUAAGGGGGCCUGGAAGUUUGGACUGGGCAGAGCUCAACACAGCGUGGCAAAGUGGCUGUGGCUAGACUGCCUCUCUGGAUUCCUCGUCACUCGGCAGGGCAUCUCUGAGAGAAAUGCC [A6G U14C A121G], the self-cleavage is reported as 0.
With UACGUGGGUGGUUUUCCCCUGAUAGCGCUAAGGGGGCCUGGAAGUUUGGACUGGGCAGAGCUCAUCACAGCGUGGCAAAGUGGCUGUGGCUAGACUGCCUCUCUGGAUUCCUCGUCACUCAGCAGGGCAUCUCCGAGAGAAAUGCC [A6G U26C A65U U134C] the self-cleavage was 0.36.
Work on UACGUGGGUGGUUCUCCCCUGAUAGCGCUAAGGGGGCCUGGAAGUUUGGACUGGGCAGAGCUCGACACAGCGUGGCAAAGUGGCUGUGACUAGGCUGCCUCUCUGGAUUCCUCGUCACUCAGCAGGGCAUCUCUGGGAGAAAUGCC [A6G U14C U26C A64G G89A A94G A136G] yielded a self-cleavage of 0.
